Reference: paper PMC12040169 (PLOS Biology, 2025)
The list shows a part of the results.

What follows are compounds tested on T1, C. trachomatis L2/434/Bu expressing GFP (CTL2-GFP). Conditions: total inclusion area; 28.5 h, 10 µM; inhibitor.
T1 construct: L2/434/Bu GFP intracellular growth in HeLa cells
Design: species or system HeLa; C. trachomatis total inclusion area by high-content imaging, normalised to DMSO
Procedure, shortened: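 High-content images of fixed, Hoechst-stained infected cultures supply inclusion area and count (growth) plus nuclei number (viability), complementing bulk GFP/resorufin fluorescence. MIC determination is unchanged from the primary assay.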

Structure (SMILES) | % of control remaining
Cc1ccc(=O)n(CC(=O)N2CCC[C@@H]3NC(=O)c4ccccc4OCCCCC[C@@H]32)n1 [CBK292100] | 100.844
Cn1cccc1C(=O)N[C@H]1CCN2C(=O)N(c3cccc(F)c3)C(=O)[C@@H]2C1 [CBK289549] | 101.847
CN(C)C(CNc1nccnc1-c1ccc(CO)cc1)c1cccnc1 (stereo not shown) [CBK038038] | 114.891
CCOCCCNc1c2c(c(C#N)c3nc4ccccc4n13)CCC2 [CBK263151] | 106.616
O=C(c1cscn1)N1CCN(c2ncccn2)CC1 [CBK144506] | 105.063
COC(=O)c1c(C)oc(C)c1S(=O)(=O)Nc1ccc(C(C)C)cc1 [CBK057115] | 94.4073
CCOC(=O)c1c(-c2cccs2)csc1NC(=O)CN1CCCCCC1 [CBK265294G] | 93.6853
CCCn1ncc(C(=O)N2CCC(Oc3ccccc3F)CC2)c1C [CBK282169] | 96.6972
COc1ccc(CC(=O)N(C)Cc2nnc3ccccn23)cc1 [CBK304935] | 51.229
CN1CCN(Cc2ccc(-c3ccc(C(N)=O)cc3)nc2)CC1 [CBK306750] | 71.6318
CCOC(=O)N1CCC(NC(=O)N2CCC(C(=O)O)CC2)CC1 [CBK156080] | 75.6865
Cc1ccc(Cl)c(OC(C)C(=O)N2CCOC(CC(=O)O)C2)c1 (stereo not shown) [CBK304769] | 76.15
CCCC(N)CCCCCC(=O)O (stereo not shown) [CBK217078] | 90.4294
CCOC(=O)C1(Cc2ccc(F)cc2F)CCCN(C(C)=O)C1 (stereo not shown) [CBK307516] | 106.965
Cn1c(Cc2cccs2)nnc1SCC(=O)c1c[nH]c2ccccc12 [CBK268534] | 90.4103
Cc1cc(C)cc(OC(C)C(=O)N2CCCc3c(cnn3C)C2)c1 (stereo not shown) [CBK285270] | 91.8527
COc1cccc(CN2C(=O)CC3(C2=O)C(=O)N(CC(=O)c2ccccc2)c2ccccc23)c1 (stereo not shown) [CBK075984] | 101.884
CC12CCCC(=O)N1C(CO)C(c1ccccc1)O2 (stereo not shown) [CBK011013] | 120.792
O=C(O)C(=O)c1cn(Cc2ccccc2Cl)c2ccccc12 [CBK287035] | 78.2027
Oc1cccnc1N1CCN(Cc2ccccc2)CC1 [CBK045849] | 82.0347
Cc1ccc(S(=O)(=O)NCC(=O)Nc2cc3ccccc3c(Br)n2)cc1 [CBK063300] | 93.0548
CCOC(=O)CCCNC(=O)N1CCN(c2ccccc2OC)CC1 [CBK155618] | 92.5878
CC(C)(C)SCCNS(=O)(=O)c1ccc(Cl)c(Cl)c1 [CBK057015] | 20.0101
CN1C(=O)COc2ccccc2C/C=C/C[C@@H]2[C@H]1CCCN2C(=O)c1cnn2cccnc12 [CBK292083] | 88.6685
O=c1[nH]c2ccccc2n1C1CCN(S(=O)(=O)c2cc(Cl)cc(Cl)c2O)CC1 [CBK149694] | 102.23
Cc1cccc2c3c([nH]c12)C1(CCCN(Cc2ccc(F)cc2Cl)C1)NCC3 (stereo not shown) [CBK039339] | 71.8179

Structure (SMILES) | % of control remaining
O=c1cc(N2CCCCC2)cnn1Cc1nccn1C1CC1 [CBK307484] | 86.1233
CN1CCN(c2cccc(-c3cc(C(F)(F)F)cc(C(F)(F)F)c3)n2)CC1 [CBK036982] | 114.616
O=C(O)c1ccc(CNCCN2CCOCC2)cc1 [CBK287223] | 85.6111
C/C(=N\NC(=O)c1nc(-c2ccccc2)cc(-c2ccccc2)n1)c1cccnc1 [CBK262827] | 88.4041
Cc1noc(C)c1NC(=O)CCc1cccnc1 [CBK200392] | 61.6148
CN(C)CCNC(=O)C(=O)Nc1ccc(Cl)cc1 [CBK266965] | 95.7344
CC(=O)N1CC[C@H]2NC(=O)CNC(=O)C3(CCCC[C@H]2C1)CCN(C(=O)CCn1ccnc1)CC3 [CBK292138] | 72.6245
O=C(Nc1n[nH]c2ccccc12)c1ccccc1 [CBK017993] | 73.8395
CC(=O)Nc1cccc(-c2cnc3[nH]c(=O)n(C4CC4)c3n2)c1 [CBK064859] | 124.132
O=C(NCCN1CCCC1=O)Nc1ccccc1 [CBK263517] | 83.814
O=C(O)c1cccnc1SC1CC(=O)N(Cc2ccccc2)C1=O (stereo not shown) [CBK263375] | 77.4998
COc1ccc(C[C@@]23CC[C@H](NC(=O)NCCc4ccccc4)C[C@@H]2N(C)CC3)cc1 [CBK024127] | 66.58
COc1cccc(C(=O)N2CCN(S(=O)(=O)c3ccc([N+](=O)[O-])cc3)CC2)c1 [CBK157533] | 69.4259
CS(=O)(=O)NCC1CCCCN1Cc1ccc(-n2cccn2)cc1 (stereo not shown) [CBK305587] | 30.3381
Cc1csc2c(C3CCCN(C(=O)c4cccnc4)C3)nc(C)n12 (stereo not shown) [CBK283329] | 112.376
CCc1nc2ccc(C(=O)N3CCN(C(C)=O)CC3)cn2c1N(C)Cc1ccc(Cl)cc1 [CBK146718] | 82.9518
c1ccc(CSc2nnc3ccc(-c4ccncc4)nn23)cc1 [CBK287681] | 82.5285
OCCc1ccc(Nc2cc(-c3ccc4c(c3)OCO4)ncn2)cc1 [CBK090767] | 87.8276
O=C(O)c1ccc(NC(=O)c2cccc(-n3cnnc3)c2)cc1 [CBK270134] | 111.861
CCNC(=S)N[C@H]1CC[C@@]2(Cc3ccccc3Cl)CCN(C)[C@H]2C1 [CBK003708] | 84.4132
C=C(C)Cn1c(Cc2ccccc2)nnc1SCC(C)C [CBK200082] | 5.595
COc1cc(NS(=O)(=O)c2cc(C(=O)O)c(Cl)cc2Cl)cc(OC)c1 [CBK113162] | 73.2792
Clc1ccc2c(c1)NC(c1ccco1)N1CCN=C21 (stereo not shown) [CBK284479] | 62.2363
CSCCC(=O)Nc1cccc2[nH]ccc12 [CBK159655] | 97.3153
CCc1cn(C[C@H](NC(=O)C2CCC2)C(=O)O)c(=O)[nH]c1=O [CBK289663] | 104.405
O=C(c1nc2ccccc2[nH]1)N1CCc2ccccc2C1 [CBK200341] | 90.8187
